Binding signal data for 109 sequences are collected here from PMC10668032.

The other results are listed elsewhere or left out. At the low end of the ranking the order means little.

The experiment concerns the target SIX1-Q177R homeodomain (UniProt Q15475). Briefly: universal protein binding microarray. To be noted: Universal all-10-mer PBM (8x60K, AMADID 030236), 300 nM GST-tagged protein, Alexa Fluor 488 anti-GST; buffer, salt, pH and temperature not stated; high values mean tight binding; most listed sequences are background and not binding sites; double strand, one strand shown.
In the case of ACGGACAC, the binding signal was found to be 0.41 E-score.

With CGAAAATA, the binding signal is 0.123 E-score.

With AAGCTCAT, the binding signal is -0.237 E-score.

Take TAGGGAAA: the binding signal was -0.00598 E-score.

Take ATGCCTTA: the binding signal was -0.131 E-score.

For the sequence ATGACTTG, the binding signal is -0.294 E-score.

Turning to GAGACATC, the binding signal is -0.236 E-score.

For AGGGGGCG, the binding signal came out at 0.0792 E-score.

For GCACAGGC, the binding signal was -0.171 E-score.

Regarding ATTCTAAC, the binding signal amounted to 0.0579 E-score.

With ATTAGTGA, the binding signal worked out at 0.0101 E-score.

As to ATACGTAC, the binding signal turned out to be 0.115 E-score.

For ATCTGGGC, the binding signal was -0.158 E-score.

In the case of ATTACTAG, the binding signal is -0.143 E-score.

Regarding ACGTTAAT, the binding signal amounted to 0.0212 E-score.

As for GATCGGTA, the binding signal was -0.13 E-score.

On to TACTGATA, for which the binding signal worked out at 0.192 E-score.

In the case of TAATAAGA, the binding signal was -0.12 E-score.

Take ATCAGGCG: the binding signal worked out at 0.0278 E-score.

Regarding CGTGGCTA, the binding signal was -0.078 E-score.

In the case of CGCCCCGC, the binding signal was 0.0557 E-score.

For the sequence TACCAATA, the binding signal came out at 0.0282 E-score.

As to CGAAGTCG, the binding signal is -0.0694 E-score.

CACCCGGA: the binding signal was found to be 0.388 E-score.

As for GAAGAGCA, the binding signal is -0.171 E-score.

Regarding ATCGGTAG, the binding signal was -0.144 E-score.

As for CACAGACA, the binding signal was 0.155 E-score.

Consider TATCCGAA, for which the binding signal worked out at 0.119 E-score.

With ATGTGCGC, the binding signal is -0.0512 E-score.

On to GCAGACTA, for which the binding signal was -0.175 E-score.

With CTTAACGC, the binding signal is -0.0882 E-score.

AGCGAGAT: the binding signal was -0.0449 E-score.

Consider GGACGTAC, for which the binding signal was -0.0768 E-score.

Regarding GGCCGTGA, the binding signal was -0.0389 E-score.

For the sequence GCGATAGA, the binding signal was -0.104 E-score.

For AACGTAGA, the binding signal was 0.106 E-score.

Consider CTCACTAC, for which the binding signal worked out at 0.0856 E-score.

Turning to CGAGCTAG, the binding signal was -0.00664 E-score.

For the sequence AAAAAGGA, the binding signal is -0.164 E-score.

For the sequence GCTTGGTA, the binding signal turned out to be 0.0497 E-score.

Consider GGCAGACA, for which the binding signal is 0.0792 E-score.

On to ACAACACG, for which the binding signal worked out at 0.358 E-score.

For the sequence CTATAGCA, the binding signal was -0.176 E-score.

Take AACGACTA: the binding signal was -0.209 E-score.

As to CAATGTTA, the binding signal is -0.288 E-score.

As for AACAAGAG, the binding signal was -0.174 E-score.

For GTGAGCCA, the binding signal was -0.238 E-score.

Turning to ACGAGTAA, the binding signal was -0.00908 E-score.

In the case of CTAAAGTC, the binding signal was -0.233 E-score.

Regarding CGCAGACA, the binding signal worked out at 0.0814 E-score.

Regarding CAATATCA, the binding signal was -0.015 E-score.

In the case of GTTCTGGA, the binding signal was determined as 0.0632 E-score.

In the case of AGGACAAA, the binding signal was -0.286 E-score.

For the sequence GGCAATCA, the binding signal was -0.0706 E-score.

As to CGAATGTA, the binding signal is -0.043 E-score.

Regarding TGGGAGAA, the binding signal was -0.0914 E-score.

For the sequence CGGCGGAG, the binding signal was 0.211 E-score.

As for GCGTTACA, the binding signal turned out to be 0.201 E-score.

Regarding ATAGATAG, the binding signal was -0.138 E-score.

Regarding CATAGTTA, the binding signal was -0.0356 E-score.

ACAGCTTC: the binding signal is -0.208 E-score.

Consider ACTACATG, for which the binding signal is -0.112 E-score.

As to CTCAAGTC, the binding signal is -0.219 E-score.

For CGAGGGGC, the binding signal stood at 0.0235 E-score.

AGCACCAT: the binding signal was determined as 0.16 E-score.

In the case of ATAGAAGA, the binding signal was -0.272 E-score.

As for ACTAGACT, the binding signal is -0.0342 E-score.

In the case of ACAGCAAA, the binding signal is -0.0813 E-score.

On to ACAGCCTG, for which the binding signal is -0.0957 E-score.

As to ATAGTTGG, the binding signal is -0.183 E-score.

For the sequence TGGAGGAA, the binding signal was -0.128 E-score.

Consider CAGAAACC, for which the binding signal came out at 0.00763 E-score.

Take AATCTGGA: the binding signal came to 0.0516 E-score.

Regarding GTAACAAC, the binding signal is -0.0438 E-score.

Turning to CCACGTGC, the binding signal was -0.0381 E-score.

In the case of CCACAGGC, the binding signal was -0.0419 E-score.

Consider CTTGGAGA, for which the binding signal is -0.0657 E-score.

For ACCACTGC, the binding signal was -0.00848 E-score.

CGGTTTTA: the binding signal came to 0.076 E-score.

For the sequence GAGTAGCC, the binding signal is -0.0759 E-score.

Take AACTCCGT: the binding signal was 0.128 E-score.

For CCCAGCGC, the binding signal was -0.0653 E-score.

As for ACTACATC, the binding signal worked out at 0.0445 E-score.

For the sequence AATAACGT, the binding signal was -0.0629 E-score.

Consider CCTGGCGA, for which the binding signal turned out to be 0.0703 E-score.

CGGTAAGC: the binding signal is -0.197 E-score.

With AGCGTTTC, the binding signal was -0.07 E-score.

GCAAAGCC: the binding signal was -0.0794 E-score.

TCTGAACA: the binding signal was 0.117 E-score.

Regarding GTACAGCA, the binding signal is 0.00477 E-score.

Regarding AACGAAAA, the binding signal is -0.0599 E-score.

On to CGGATAGA, for which the binding signal was -0.0725 E-score.

As for GAAATGTC, the binding signal is -0.197 E-score.

As for AATTTTGA, the binding signal was found to be 0.0825 E-score.

Regarding CCACGTAC, the binding signal turned out to be 0.0213 E-score.

Turning to GACGATGC, the binding signal was -0.0395 E-score.

ATAAATAC: the binding signal was found to be 0.0357 E-score.

On to CGAGATAA, for which the binding signal amounted to 0.0656 E-score.

With ATACTTTG, the binding signal was -0.138 E-score.

On to AAGTGTAA, for which the binding signal was 0.4 E-score.

CTATTGAG: the binding signal is -0.0157 E-score.

Turning to AGTGTCAG, the binding signal came out at 0.444 E-score.

Regarding ACATTACA, the binding signal amounted to 0.114 E-score.

AGTAAGTC: the binding signal is 0.0331 E-score.

Turning to AATTAACT, the binding signal was -0.0745 E-score.

Take ACCCGGGG: the binding signal worked out at 0.297 E-score.

With CCCGGGCA, the binding signal amounted to 0.13 E-score.

For GATAGACA, the binding signal is 0.0823 E-score.

On to GAATAGTA, for which the binding signal was -0.018 E-score.
